Each binder was assayed against T1, CD86Ig (UniProt P42081 24-247) (assay: SPR screening of COS culture media over immobilized CD86Ig).
T1 construct: Immobilized on the BIAcore sensor chip; also called soluble CD86Ig

Sequence of CD86Ig (P42081 24-247): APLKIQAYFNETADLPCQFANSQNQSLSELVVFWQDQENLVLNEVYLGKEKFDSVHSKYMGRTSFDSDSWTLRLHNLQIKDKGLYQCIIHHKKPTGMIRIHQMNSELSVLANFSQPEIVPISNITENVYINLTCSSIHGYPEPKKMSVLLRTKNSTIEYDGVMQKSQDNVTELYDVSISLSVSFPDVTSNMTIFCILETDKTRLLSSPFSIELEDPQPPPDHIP

fold slower off rate than wild type CTLA4Ig | Binder
~4 fold | L104EA29LIg (Fc fusion, Tested as COS cell culture medium) MHVAQPAVVLASSRGIASFVCEYASPGKLTEVRVTVLRQADSQVTEVCAATYMMGNELTFLDDSICTGTSSGNQVNLTIQGLRAMDTGLYICKVELMYPPPYYEGIGNGTQIYVIDPEPCPDSDQ[gap - human IgG1 Fc with changes]
~4 fold | L104EA29WIg (Fc fusion, Tested as COS cell culture medium) MHVAQPAVVLASSRGIASFVCEYASPGKWTEVRVTVLRQADSQVTEVCAATYMMGNELTFLDDSICTGTSSGNQVNLTIQGLRAMDTGLYICKVELMYPPPYYEGIGNGTQIYVIDPEPCPDSDQ[gap - human IgG1 Fc with changes]
~4 fold | L104EA29TIg (Fc fusion, Tested as COS cell culture medium) MHVAQPAVVLASSRGIASFVCEYASPGKTTEVRVTVLRQADSQVTEVCAATYMMGNELTFLDDSICTGTSSGNQVNLTIQGLRAMDTGLYICKVELMYPPPYYEGIGNGTQIYVIDPEPCPDSDQ[gap - human IgG1 Fc with changes]
